Measurements: the supplement of paper PMC7826260
Some of the results follow. One pool of 16,384 single-stranded DNAs met each Rep nickase domain in vitro (1 h at 37 °C, 3 µM enzyme); the outer parts of the 90-letter strands are left off. Uncut reads are compared with the no-enzyme pool on a log2 scale; strong cutting gives strongly negative numbers. There is no active / inactive call. Shares of all reads are compared; where an enzyme cuts many sequences, the uncut ones exceed 0.

test system: T1, Rep nickase domain of tomato golden mosaic virus; test: uncleaved DNA left, log2 of reads against the no-enzyme library (log2 ratio); higher = less cleavage (more negative = more Rep cleavage of the k-mer); sequences stand for … in CTCGTCCG…ACCGGAGA
T1 sequence (Rep 1-124, printed without the tag): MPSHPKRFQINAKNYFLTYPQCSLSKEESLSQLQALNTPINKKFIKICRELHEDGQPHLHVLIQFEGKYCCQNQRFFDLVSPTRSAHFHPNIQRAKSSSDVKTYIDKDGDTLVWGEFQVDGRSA
Protocol: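 A pool of 90-nt single-stranded DNAs with seven random bases just before the constant AC of the nick site (name = the seven bases) was cut by 3 µM recombinant His6-SUMO-tagged Rep nickase domain (300 nM DNA, 50 mM HEPES pH 8.0, 50 mM NaCl, 1 mM MnCl2, 1 h, 37 °C, three replicates). Uncut DNA was amplified and sequenced.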

Row | Sequence | uncleaved DNA left (log2)
1 | AGACAGC | -0.00528
2 | CGTGATT | 0.145
3 | TCAATCA | 0.104
4 | GATTGTG | 0.0463
5 | AAAGCTA | 0.206
6 | AGCATTG | 0.00363
7 | CCCAACC | -0.0837
8 | TCTGAAC | 0.0894
9 | AGGAAGA | 0.0968
10 | TTCCTGC | -0.185
11 | GCAGCCG | -0.0209
12 | GGGTCTC | 0.0706
13 | ACCCAAC | -0.0457
14 | AGTACAC | -0.00947
15 | TAGTCAG | 0.121
16 | GCGACGA | 0.0678
17 | TCCCGAG | 0.277
18 | GGTTTTT | 0.0354
19 | GAACTAC | 0.0997
20 | GCCCGTC | 0.0343

Row | Sequence | uncleaved DNA left (log2)
21 | GTACGGG | 0.136
22 | AACGCGC | -0.0304
23 | AGAATGC | -0.0167
24 | AGCGACC | 0.0616
25 | TATCTTG | -0.0719
26 | GTGATTT | -0.0968
27 | CCCGTCT | -0.176
28 | ACTCGAA | 0.0709
29 | AACTCGG | 0.176
30 | GAGTTGG | 0.0595
31 | AGGTCCG | 0.0437
32 | AGAGAAA | 0.0179
33 | ACTTCCA | -0.0312
34 | CCTCAGA | 0.165
35 | AATATTG | 0.087
36 | CTGAATT | -0.287
37 | GTCTCAT | -0.023
38 | TTCCGTA | 0.0961
39 | CGTGACT | -0.0335
40 | ACGGTTC | 0.16
